# Data as given in PubChem BioAssay AID686970 (National Center for Advancing Translational Sciences (NCATS), 2013).
# Hit rate of the full screen: of about 360,000 compounds, about 6,000 (1.7%) were called active. This list was built around the results that the source calls inconclusive (neither active nor inactive); the mix of calls is not that of the screen. Calls come from the whole dose curve; as a rule, active = well fitted cell-killing curve with a large enough effect; inconclusive = small, poorly fitted or top-dose-only effect, or effect the other way; inactive = flat fitted curve, though single readings scatter. No potency is given beside an inconclusive call; the fits are too rough.
# Test: qHTS for induction of synthetic lethality in tumor cells producing 2HG: qHTS for the HT-1080-NT fibrosarcoma cell line;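 note: NT is the 2HG producing partner of a matched IDH1 knockdown line; nearly all actives have a fitted effect of over 55% in size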;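 for activity, negative = less viability: 0% = DMSO-treated cells and -100% = media-only wells without cells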
# Conditions: HT-1080-NT fibrosarcoma viability, CellTiter-Glo ATP luminescence, 48 h; activity, negative = less viability: at 46.1 µM (top of the series) unless noted
# Procedure, shortened: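 Compounds were tested in concentration-response format on HT-1080-NT cells for 48 hours at 37 degrees C. Cell viability came from CellTiter-Glo luminescence; curves were classified by r2, response magnitude and activity.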
# Potency is the fitted concentration of half-maximal effect; tags give direction and shape of the fitted curve.
Structure (SMILES),Potency,"activity, negative = less viability"
C=CCn1c(C)nnc1SCC(=O)NC1CCCCC1,"inconclusive [rising, single point]",–
CCC1(C)CC(CCNS(=O)(=O)c2ccc(C)cc2)(c2ccc(C)cc2)CCO1 (stereo not given),"inconclusive [cytotoxic, single point]",–
O=C(Cn1ncn2c(cc3ccccc32)c1=O)NCCC1=CCCCC1,"inconclusive [cytotoxic, single point]",–
CC(=O)c1ccc(OCC(O)CN2CCN(CCN3C(=O)c4cccc5cccc(c45)C3=O)CC2)cc1 (stereo not given),"inconclusive [cytotoxic, single point]",–
O=C(COC(=O)c1ccccc1C(=O)OCC(=O)NCCc1c[nH]c2ccccc12)NCCc1c[nH]c2ccccc12,"inconclusive [cytotoxic, single point]",–
O=C(NCc1ccccc1)C(CCc1ccccc1)n1c(=O)c(-c2cc3ccccc3[nH]2)nc2ccccc21 (stereo not given),"inconclusive [cytotoxic, partial curve, poor fit]",–
CN(c1ccccc1)S(=O)(=O)c1ccc(Cl)c(C(=O)Nc2ccc(N3CCOCC3)cc2)c1,"inconclusive [cytotoxic, partial curve, poor fit]",–
Cc1cc(C)n(-c2ccc3cccc(NS(C)(=O)=O)c3n2)n1,–,inconclusive: -18.2% [cytotoxic]
CCNc1nc(C)c2cc(Br)c(=O)n(CC)c2n1,active: 2.91 µM,–
C(=N\Nc1nc2ccccc2[nH]1)/c1cccc2cccnc12,"inconclusive [cytotoxic, full curve]",–
CCOc1ccc(C(=O)Nc2ccc(CN3CCOCC3)cc2)cc1Br,"inconclusive [cytotoxic, single point]",–
COc1ccc(/C=N\NC(=O)c2cc3c(ccc4ccccc43)o2)cc1O,"inconclusive [cytotoxic, full curve, poor fit]",–
Cc1cccc(-c2oc3ccccc3c2-c2ccc3c(c2)OCO3)c1,"inconclusive [rising, single point]",–
O=C(O)c1ccc(N/N=C/c2ccc(-c3cccc(Cl)c3)o2)cc1,active: 10.3 µM,–
O=C(NCCCN1CCOCC1)c1ccc(S(=O)(=O)Nc2cccc(C(F)(F)F)c2)cc1,–,inactive: -14.6%
COc1ccc(S(=O)(=O)N(CC(=O)NCc2ccncc2)c2ccc(C)cc2)cc1OC,–,inactive: 6.02%
CC(O)(c1cccc(F)c1)c1nc(-c2ccc3ccccc3c2)cs1 (stereo not given),"inconclusive [cytotoxic, single point]",–
O=C(CCCc1ccccc1)NCc1ccc(Cl)cc1,–,inactive: 20.6%

Structure (SMILES),Potency,"activity, negative = less viability"
O=C(N/N=C/c1ccccc1[N+](=O)[O-])c1ccc2c(c1)OCCO2,–,inactive: -3.75%
Cc1ccnc(NC(=O)c2ccc([N+](=O)[O-])s2)c1,"inconclusive [cytotoxic, single point]",–
CC(=O)Cc1cc(O)c2ccccc2c1OC(=O)c1ccccc1,"inconclusive [cytotoxic, single point]",–
CC(=O)N1CCN(c2ccc(NC(=O)c3ccc4c(c3)OCCO4)cc2)CC1,–,inactive: 0%
Cn1c(SCC(=O)N(C2CCCCC2)C2CCCCC2)nnc1-c1cccs1,"inconclusive [cytotoxic, single point]",–
Cc1noc(C)c1-c1ccc(C(=O)Nc2cccc(C(F)(F)F)c2)c2occc12,"inconclusive [cytotoxic, single point]",–
O=C(Nc1cccc(C(F)(F)F)c1)c1cccc2c(-c3cccnc3)coc12,–,inactive: -2.93%
COc1ccc(C(=O)CCN2CCCC(C)C2)cc1 (stereo not given),"inconclusive [cytotoxic, single point]",–
CC1CCCCC1Nc1nc2ccc(Cl)cc2n2cnnc12 (stereo not given),"inconclusive [cytotoxic, single point]",–
COc1ccc(N(CC(=O)Nc2ccc(C(C)C)cc2)S(=O)(=O)c2c(C)noc2C)cc1,"inconclusive [cytotoxic, single point]",–
CSCCC(NC(=O)c1cccc(S(=O)(=O)N2CCOCC2)c1)C(=O)Nc1cccc(C)c1 (stereo not given),–,inactive: -6.57%
C/C(=N\NC(=O)C1=NNC(=O)C1C)c1cccs1 (stereo not given),"inconclusive [cytotoxic, partial curve]",–
C#Cc1ccc([C@H]2C=C(C(=O)NCc3ccccc3)O[C@@H](OCc3ccc(CO)cc3)C2)cc1,–,inactive: 3.66%
CC(=NNC(=S)Nc1cccc(Cl)c1)c1ccccn1,active: 18.4 µM,–
O=C(NCc1ccccc1)C1c2ccccc2OCC(=O)N1Cc1ccc2c(c1)OCO2 (stereo not given),–,inactive: -0.558%
CN(Cc1ccccc1)C(=O)c1cccc(NC(=O)Cc2ccc(NC(=O)C3CCCN(C(=O)c4ccccc4)C3)cc2)c1 (stereo not given),–,inactive: -0.649%
CN(C)c1cc[n+](CC(=O)Nc2ccc(Cl)cc2)cc1,active: 6.51 µM,–
